# From article PMC12136788
# The list shows a part of the results.
# B1: chr7:125984895:125984896:+_ENSMUSG00000030982_ENSMUST00000106553|mus_hu|motif|central (ssRNA)
# RNA: GGGAGUUCUACAGUCCGACGAUCGGCCAAAGCUUAAAACAAUUUGUACAUAUGUAAAAAGAAAAGAAAAAUGAGAAACCGGAAUUGCCGUAAGAGUUCAGGGCAGCAGAGCAGAUCUUUCUGGAUUUGGCACCAGAGUCCCUGCAACAGAGGAUUGAGCAUCA
# B2: 33187190_33194627_218_3pUTR_ENSMUSG00000054280_ENSMUST00000120129|mouse|control|control (ssRNA)
# RNA: GGGAGUUCUACAGUCCGACGAUCGUCUUUUGCAUCAAUGGUUUACCCUUGAGAAAAGGGCUUUCUUUUCCAAAGAUUCAGAUCCUGCAGCCAGCCCCUCCAUAAGGGACAUUCAGACACUGUAUCCAAUUCUUCCAUGAGGGACAACAGAGGAUUGAGCAUCA
# B3: chr15:8067299:8067300:+_ENSMUSG00000022142_ENSMUST00000163765|mus_mus|FALSE|FALSE (ssRNA)
# RNA: GGGAGUUCUACAGUCCGACGAUCGAUUCUGCCAUUAUCCGUGGACGUGAUUGUUAAAAGGUACGUGUUGUCCGUGGGAAGAGAAUAUAAGGGAUCUGGAAGCAGCUGCAUGCCGCCACACAUGCUGUCAUUGAGAAUGCCAGACAACAGAGGAUUGAGCAUCA
# B4: chr1:109605286:109605287:-_ENSG00000197780_ENST00000461096|hu_mus|hu_hu_hu_mus_True|1_88 (ssRNA)
# RNA: GGGAGUUCUACAGUCCGACGAUCAAGUUUCAGAGUAACAUUCAGUAUACUUAAAUCAUGCAAUUAUCCUUAUUAUAAGCUAAGCAGAAUAAUAAUUUAAUACCGUAAGUGAACUACACACAAAGCCUGAACCGCGAAACUACACAACAGAGGAUUGAGCAUCA
# B5: chr15:79941026:79941027:+_ENSMUSG00000022415_ENSMUST00000009727|mus_hu|FALSE|FALSE (ssRNA)
# RNA: GGGAGUUCUACAGUCCGACGAUCUUUCUUGCGGUCCUUGACGCUGCUGAUCUGCGGGAAGUACACGUCCAGGGCCAGGUACAGCAGGCAGGUGAGGAAGGCGAGCACGCCCACGGCCACGCCAUAGCUGCAGGCGUUGGGGUUCAACAGAGGAUUGAGCAUCA
# B6: 10438206_10439956_228_3pUTR_ENSMUSG00000027534_ENSMUST00000029047|mouse|control|control (ssRNA)
# RNA: GGGAGUUCUACAGUCCGACGAUCACUUGUACACCUUUGAGUCCAAACACUUAAAGAACAACCAAUAUGCAGUUCAUUGCUUUCUUCUUAGGAAUUCACUAUCUCGGCGCGCUCCGCGACCCCACGCCGUCAGGGGAAGGAAGGCAACAGAGGAUUGAGCAUCA
# B7: chr17:64801638:64801639:+_ENSG00000154229_ENST00000413366|hu_mus|hu_hu_hu_mus_False|1_8 (ssRNA)
# RNA: GGGAGUUCUACAGUCCGACGAUCUAUAUAUAUAUAUACAUAUGUACACAUAUAUAGUAAAACCCUAGUUAAACGUGUAAAGUAGCCAUUCAUUUUUAAAAUUACAUCUACAUUAAAAAAUUAAUAUAUCUGAUACAGUGCCCACAACAGAGGAUUGAGCAUCA
# B8: 43796035_43796155_616_CDS_ENSG00000152242_ENST00000321319|human|control|control (ssRNA)
# RNA: GGGAGUUCUACAGUCCGACGAUCCAGGUGACCACUAGAGGAAGGGGAAAGCAUGCAGUGAUUAGAGGAGUCACUCUCAUAAACUCGGCCAGUUGUAGGCUUGUCACUCUCUGUGGAUGCUAACUGAGACUCAGAAGAGUCCCUCAACAGAGGAUUGAGCAUCA
# B9: chr11:29999759:29999760:-_ENSMUSG00000020315_ENSMUST00000011877|mus_hu|FALSE|FALSE (ssRNA)
# RNA: GGGAGUUCUACAGUCCGACGAUCUACACUUACCAAUGAUUUAAAGGGUUUAUUAUACAUCUAGUUUUAUUAUACUUUGUACUAGAAUUAUCUCAAACGUACAAUAUAAUGUAUUUCAGCAAAAAAAAAAAAUUGAAAUUACAGCAACAGAGGAUUGAGCAUCA
# B10: 37446505_37446897_2516_CDS_ENSMUSG00000026113_ENSMUST00000027287|mouse|control|control (ssRNA)
# RNA: GGGAGUUCUACAGUCCGACGAUCAUCCCGGUUUCCUGUGAUGACCGGCAGCAUGUCAUUUGAUGCAUUCGAAGUGGCCUGAGUGACUUUAAAGGUCACAUUCCUCAGGUCCAUGAUUCCAAGGCUCAUGUCCUCCAACAUGGCCAACAGAGGAUUGAGCAUCA
# B11: chr8:74529624:74529625:-_ENSG00000040341_ENST00000355780|hu_mus|FALSE|FALSE (ssRNA)
# RNA: GGGAGUUCUACAGUCCGACGAUCAAGCGCUUUCAUCGCAGCAUUGUGUCUGGCAGCUUGUCGAGUCUUCCCUUCACCAAAGAAUUCAUUAUUUCCUACAGUUAACUGAACAUAAAAGAUCUUGGGCAUUGGGCAAUGAUACCUCAACAGAGGAUUGAGCAUCA
# B12: chr6:106732989:106732990:-_ENSMUSG00000005362_ENSMUST00000049675|mus_mus|motif|central (ssRNA)
# RNA: GGGAGUUCUACAGUCCGACGAUCACUGCCGAUUUUAAGGAGCUGAAUUCUCAAUACAUCAUCAAUAGGAAGACAAGCAGCGGCUCUGUAAGAAAAGUCUAUUGGAUUUUCAGGAAGAGAAUCAUCUUUGAGAUUUUCAUCCCACAACAGAGGAUUGAGCAUCA
# B13: 103732641_103732761_1005_3pUTR_ENSMUSG00000044098_ENSMUST00000106806|mouse|control|control (ssRNA)
# RNA: GGGAGUUCUACAGUCCGACGAUCAGCAAGAAACUCCUCAGAAAAUCUCUCCAUCUCCAUUGGAGACAAAAAUGAGAGUUCGUCCAUGUAUGCAUGAAGGACAAGAGCACCCCCAUUGGACUGGUGUUCUUCGUGAAUAAAGUUCAACAGAGGAUUGAGCAUCA
# B14: 72565724_72565844_983_CDS_ENSMUSG00000056429_ENSMUST00000070524|mouse|control|control (ssRNA)
# RNA: GGGAGUUCUACAGUCCGACGAUCAAGUGGUGAGCCUUCUUCCGGCUCUGUGUCACCCUCUUCAAUCUCCUUGGUUUCCACGUCUUCAGUAGGCUCUGAAGACUUAUCUCCUUUCUCUGGCUUUAAAGAGAAGUCAGAGUCCCCCAACAGAGGAUUGAGCAUCA
# B15: chr2:148701057:148701058:-_ENSG00000115947_ENST00000542387|hu_mus|FALSE|FALSE (ssRNA)
# RNA: GGGAGUUCUACAGUCCGACGAUCAUGACUGCAAGUUUUUGUUGACACUGAAAUGUUUCUGUAGGACUUCAAGCACAGUUGAAUCUUCAGAGAGACAGUGAACAUUCUCAUUCCAUCUCUCAGCAAAAGCCUUAUCUGGGAAUUCAACAGAGGAUUGAGCAUCA
# B16: chr19:8913615:8913616:-_ENSMUSG00000071658_ENSMUST00000096259|mus_hu|mus_mus_mus_hu_False|68_88 (ssRNA)
# RNA: GGGAGUUCUACAGUCCGACGAUCAGGGUACCAAAACCUUCUGCCUGAGAUAGGUGCCCCACCCAGUCAGGACUUGGAGCUGAAAGUAUCUGAUGCAGAAGCAGUGACUAUACGAAAGGAGGCCCCUGGGGAGGGCCAGGCCAGCAACAGAGGAUUGAGCAUCA
# B17: chr2:179515052:179515053:+_ENSMUSG00000000305_ENSMUST00000000314|mus_hu|mus_mus_mus_hu_False|68_78 (ssRNA)
# RNA: GGGAGUUCUACAGUCCGACGAUCGCUGUCCCAUGCAGUCACCGUGAACGCCACCUGCUCUGAGGGGAUCUUCAACUCCCGGGUGGCGAAGACUGUCCCAUCUGCCCCAACUUUGAAGUCCAUGCUGUUGGUCUCAUAUUGUGUCAACAGAGGAUUGAGCAUCA
# B18: chr8:95500983:95500984:-_ENSG00000164944_ENST00000437199|hu_hu|hu_hu_hu_mus_True|78_108 (ssRNA)
# RNA: GGGAGUUCUACAGUCCGACGAUCAGAAGGAUUUUUACGAGUAAAGGACCGUACAUGGACGACCUCUCCACUGCCUCCACUAACAAACUUUCCUCUCGAGCCUCCACUGCCGCUAUUUGUACUAGCCCAGGACGGUCCCAGGCCCAACAGAGGAUUGAGCAUCA
# B19: chr2:119558892:119558893:+_ENSMUSG00000027304_ENSMUST00000028767|mus_mus|motif|central (ssRNA)
# RNA: GGGAGUUCUACAGUCCGACGAUCGCAAGAACCCCACAGCUCCACGGUAAUACUGAGUGUGCUGAGUGGCGGGACUGUGCGGGUUACAAACCAGAAGCAGGCGGGAGGGCAAACACAAACCUAAAGAGAAGAAGCCCCAUCCAACAACAGAGGAUUGAGCAUCA
# B20: chr3:138121269:138121270:+_ENSG00000158186_ENST00000289104|hu_mus|FALSE|FALSE (ssRNA)
# RNA: GGGAGUUCUACAGUCCGACGAUCUCAACACACAAAAGGUUUGGAAGCUGUAGCCCUGUCUCCUGGGAGAGGCAGCAAAGCCAGCCCCGGCCUGCUUCUGCCCCCUCCUCCCUCAUUCCCUUCCAAUGCCCAGUCCAGAGCCAACAACAGAGGAUUGAGCAUCA
# B21: 121518184_121526273_779_CDS_ENSG00000173226_ENST00000310864|human|control|control (ssRNA)
# RNA: GGGAGUUCUACAGUCCGACGAUCAUACAGGGCUUUUCUUCCUAUUCUGAGUAAAUCACCACUGUUGAUCUGUAGUAUAUUCUGUAGCAUCAUCAUGACUGCAGAUCCUAUUUGGACAUUGUCAGCUUGCAGUAAAUGUAAGAACAACAGAGGAUUGAGCAUCA
# B22: 75014891_75015011_2779_3pUTR_ENSMUSG00000034593_ENSMUST00000123128|mouse|control|control (ssRNA)
# RNA: GGGAGUUCUACAGUCCGACGAUCUCGCUGCACUGUGAUGGCUGCCCUCUGCAUACACAGGUAUCUCUUCCUUAGAAGCCACCCACGAAUGGUCUUCUGGAUCCGGAUGCAGGCAGCCCGAAGUUUGUCAGCCCUCAAUUUUUCCAACAGAGGAUUGAGCAUCA
# Biological target: T1, UNK ZnF1-3 (human, UniProt Q9C0B0 31-174)
# T1 sequence: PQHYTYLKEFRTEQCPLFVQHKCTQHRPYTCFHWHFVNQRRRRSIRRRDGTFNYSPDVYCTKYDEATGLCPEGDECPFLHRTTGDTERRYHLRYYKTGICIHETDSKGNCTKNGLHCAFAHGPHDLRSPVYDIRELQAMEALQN
# Assay: nsRBNS (natural sequence RNA bind-n-seq); RBNS binding buffer (assumed for nsRBNS): 25 mM Tris pH 7.5, 150 mM KCl, 3 mM MgCl2, 0.01% Triton X-100, 500 ug/ml BSA, 20 U/ml SUPERase-In, 4 C; UNK is unkempt and MSI1 is Musashi-1; names of the RNAs are library labels; protein concentration not given here; high values mean tight binding
row,Binder,binding signal
1,B1,2.31 enrichment R
2,B2,0.709 enrichment R
3,B3,1.04 enrichment R
4,B4,0.609 enrichment R
5,B5,0.913 enrichment R
6,B6,0.902 enrichment R
7,B7,1.67 enrichment R
8,B8,1.48 enrichment R
9,B9,2.96 enrichment R
10,B10,0.698 enrichment R
11,B11,1.17 enrichment R
12,B12,1 enrichment R
13,B13,0.798 enrichment R
14,B14,0.505 enrichment R
15,B15,1.06 enrichment R
16,B16,1.36 enrichment R
17,B17,0.686 enrichment R
18,B18,1.35 enrichment R
19,B19,1.23 enrichment R
20,B20,1.06 enrichment R
21,B21,0.976 enrichment R
22,B22,0.448 enrichment R
